# Source: ChEMBL document CHEMBL1157539, “Thousands of chemical starting points for antimalarial lead identification” (Nature, 2010)
# Over roughly 13,000 compounds, “IFI” has its median near 4; the highest 2% begin near 17. The list shows a part of the results.
# Test: GSK_TCMDC: Inhibition Frequency Index (IFI). The number of non-kinase HTS assays where a compound showed > 50 % inhibition, expressed as a percentage of the number of such assays in which the compound was tested (-0 is zero)
# Type: functional
row,SMILES,IFI
1,COc1cccc2c(NCCNc3ccnc4c(OC)cccc34)ccnc12,0.75%
2,O=C(Nc1cccc(-c2nn3ccccc3c2-c2ccnc(Nc3cccc(-c4cnco4)c3)n2)c1)C1CCCCC1,7.25%
3,CC(C)NCc1ccc(OCc2cccc(COc3ccc(CNC(C)C)cc3I)c2)c(I)c1,17.6%
4,O=C(NCCc1ccccc1)N(Cc1ccccc1-c1cccc(CNCCc2ccccc2)c1)C1CCN(Cc2ccccc2)CC1,12%
5,Cn1nc(-c2ccccc2F)c2cc(C(=O)NC3CCN(Cc4ccccc4)CC3)sc21,2.1%
6,O=C1C(c2ccccc2)=C(Nc2cccc([N+](=O)[O-])c2)c2ccccc21,4.65%
7,Cc1cc(N2CCCCC2)nc2ccc(NC(=O)c3cccc([N+](=O)[O-])c3)cc12,3.74%
8,CCN(CC)CCOc1ccc(C(O)(C#CC(O)(c2ccc(OCCN(CC)CC)cc2)c2ccc([N+](=O)[O-])cc2)c2ccc([N+](=O)[O-])cc2)cc1 (configuration not stated),5.84%
9,CC(C)(C)c1ccc(/C=C/C(=O)NCCCCCN2CCC(c3c[nH]c4ccccc34)CC2)cc1,4.55%
10,CCCCc1ccc2ncc(C(=O)OCC)c(O)c2c1,0.78%
11,Cc1noc(C)c1-c1ccc(C(=C2CCCCCC2)c2ccc(O)cc2)cc1,8.66%
12,CN1CCC(N(Cc2ccc(-c3ccc(C(F)(F)F)cc3)cc2)C(=O)Cn2cc(Cc3cnn(C)c3)c(=O)nc2SCc2cccc(F)c2F)CC1,8.15%
13,c1ccc2c(CNCCCN3CCN(CCCNCc4c5ccccc5cc5ccccc45)CC3)c3ccccc3cc2c1,15.3%
14,CCc1cn2c3c(cc(C(=O)N[C@@H](Cc4cccc(F)c4)[C@H](O)CNC4CCOCC4)cc13)N(C)S(=O)(=O)CC2,3.13%
15,COc1cc2ccccc2cc1OCCCN1CCN(CC(c2ccc(F)cc2)N2CCN(C(C)C)CC2)CC1 (configuration not stated),10.3%
16,COc1ccc2nccc([C@@H](O)CN3CCC(NCCc4c[nH]c5ccccc45)CC3)c2c1,1.52%
17,CC(C)(C)c1ccc(C(=O)Nc2ccc(NC(=O)c3ccc([N+](=O)[O-])o3)cc2)cc1,0.75%
18,CS(=O)(=O)c1cccc(-c2cnc(N)c3cc(-c4ccc5c(c4)OCO5)ccc23)c1,4.48%
19,COc1ccc(-c2ccc(NC(=O)c3cccc(C#N)c3)cc2)cc1CN1CCNCC1,2.97%
20,CCc1ccc(NC(=O)c2cccc(CN3CCCN(CC4CCCCC4)CC3)c2)cc1,8.63%
21,COc1ccc(CNc2nccc3ccc(-c4ccc(N)nc4)cc23)cc1,1.33%
22,COc1ccc(CCNCCCCCCNCCc2ccc(OC)c(OC)c2Cl)c(Cl)c1OC,2.94%

row,SMILES,IFI
1,COc1ccc(NC(=O)C2CCN(CCCCCNC(=O)/C=C/c3ccc(Cl)c(Cl)c3)CC2)cc1,5.94%
2,CC(=O)N(Cc1ccc(CC(C)NCCc2cccc(Cl)c2)cc1)Cc1ccc(CC(C)NCCc2cccc(Cl)c2)cc1 (configuration not stated),15.5%
3,Nc1ccc(-c2nc3cc(Cc4ccc5[nH]c(-c6ccc(N)cc6)nc5c4)ccc3[nH]2)cc1,6.57%
4,CCN(CC)CCc1ccc2c(=O)cc(CCc3cccc(F)c3F)n(CC(=O)N(C)Cc3ccc(-c4ccc(C(F)(F)F)cc4)cc3)c2c1,9.93%
5,O=c1[nH]ccc2nc(N[C@@H]3CCNC3)nc(Nc3cc(Cl)cc(Cl)c3)c12,16.7%
6,CO/C(=C\C=C\c1cc2cc(Cl)c(Cl)cc2[nH]1)C(=O)NCCCN1CCCC[C@@H]1C,12.9%
7,O=C(Nc1cccc(CN2CCCN(Cc3cccc(Cl)c3)CC2)c1)c1ccc(Br)cc1,10.2%
8,CCn1ccc2c(N3CCCS3(=O)=O)cc(C(=O)N[C@@H](Cc3ccccc3)[C@H](O)CNC(C)(C)CCCC(C)C)cc21,4.48%
9,CCOC(=O)c1ccc(NC(=O)Nc2ccc(-c3ccc(-c4nc5cc(C(F)(F)F)ccc5[nH]4)cc3)cc2)cc1,7.92%
10,CN(C)CCN(Cc1ccc(-c2ccc(CNCCc3ccccc3)cc2)nc1)C(=O)CCC1CCCC1,8.33%
11,CS(=O)(=O)c1ccc(CCNCc2ccc(-c3ccc(CNC4CCN(Cc5ccccc5)CC4)cc3)nc2)cc1,4.11%
12,COc1ccc(NC(=O)Nc2cccc(-c3ccc(-c4nc5cc(C(F)(F)F)ccc5[nH]4)cc3)c2)cc1,3.03%
13,CCCc1cc(Cc2cnc(N)nc2N)cc(CCC)c1OCCCCCC(=O)OCC,13.1%
14,COc1cc2c(cc1OC)C(C)(C)CN1Cc3c(c(CO)c(OC)c(OC)c3OC)CC21 (configuration not stated),0.82%
15,COc1ccc(C2c3ccccc3-c3nc(N)nc(N)c3C2C)cc1 (configuration not stated),2.46%
16,N#Cc1ccc(CN2CCC(Oc3ccc(NC(=O)c4ccco4)cc3Cl)C2)cc1 (configuration not stated),4.62%
17,Cc1cc(N[C@@H](Cc2ccccc2)C(=O)NCc2cccs2)nc(NCCc2cccnc2)n1,2.5%
18,NC(=O)c1sc(-n2cnc3ccc(OCC4CCNCC4)cc32)cc1OCc1ccccc1C(F)(F)F,4.07%
19,COc1ccc2c(c1)CC1CN(CCCCNC(=O)c3ccc(NC(=O)c4cc(Cl)cc(Cl)c4)cc3)CCN1C2 (configuration not stated),3.57%
20,O=C(Nc1ccnc(N2CCCN(Cc3cccc(O)c3)CC2)c1)c1ccc(F)cc1,2.44%
21,CN(C)CCCOc1ccc(CNCC(C)(C)c2nc(-c3ccc(Cl)c(O)c3)c(-c3ccncc3)[nH]2)cc1,6.16%
22,COc1ccc2ncc(F)c(CCN3CC[C@@H](CNCc4ccc5c(c4C)OCCO5)C3)c2n1,6.14%

row,SMILES,IFI
1,CO/C(=C\C=C\c1cc2cc(Cl)c(Cl)cc2[nH]1)C(=O)NCCCN1CCN(c2cccc(Cl)c2)CC1,8.27%
2,N#Cc1cccc(NC(=O)Nc2cccc(-c3ccc(-c4nc5cc(C(F)(F)F)ccc5[nH]4)cc3)c2)c1,7%
3,CC(C)(C)c1cc(C(=O)N2CCN(c3ncnc4ccsc34)CC2)n(Cc2ccccc2)n1,1.41%
4,CN1CCCC(CN2CCN(Cc3cccc(-c4ccc(-c5nc6cc(F)ccc6[nH]5)cc4)c3)CC2)C1 (configuration not stated),5.56%
5,CS(=O)(=O)Nc1ccc(OCCCCCCOc2ccc(NS(C)(=O)=O)cc2)cc1,0%
6,CC1(CCN2CCC(c3c[nH]c4cnccc34)CC2)CCCc2c(Br)cccc2C1=O (configuration not stated),8.51%
7,Cn1cc(C(=O)Nc2cccc(-c3cccc(-c4nc5ccccc5[nH]4)c3)c2)n(C)c1=O,2.78%
8,Clc1ccc(CNc2nc(NCCc3c[nH]cn3)nc(Nc3ccc4c(c3)OCO4)n2)cc1,1.5%
9,COC(=O)c1ccc(CCCNCC(O)c2cccc(C(F)(F)F)c2)cc1 (configuration not stated),4.41%
10,CCn1ccc2c3c(N)nc(N)nc3ccc21,4.26%
11,N=C(N)NCCN(Cc1ccccc1)c1ccc(Cl)cc1,5.15%
12,CCN(CCCN1CCCC1)c1cc(C)nc(Nc2ccc(Cl)cc2)n1,6.38%
13,O=C(Nc1ccc(C(=O)N2CCN(CCN3CCN(c4cccc(C(F)(F)F)c4)CC3)CC2)cc1)c1ccc(OC(F)(F)F)cc1,11.3%
14,Fc1ccc(CNc2ccc3ncc(-c4cccnc4)n3n2)cc1,4.72%
15,CC(C)c1ccc(OCC(O)CN(C)C(C)C(O)c2ccccc2)c(Br)c1 (configuration not stated),9.09%
16,CCc1cc2c(=O)c(-c3nc(C)cs3)c(N)oc2c(CN2CCCCC2)c1O,2.24%
17,COc1c(C2CCN(CCCCNC(=O)c3ccc(-c4ccc(Cl)cc4)c(OCCN(C)C)c3)CC2)ccc2c1CCCC2,14.4%
18,Nc1nc(F)nc2nc[nH]c12,7.75%
19,CC1CCNc2ccc(Cc3cnc(N)nc3N)cc21 (configuration not stated),3.23%
20,CCN(CC)CCN(Cc1ccc(-c2ccc(C(F)(F)F)cc2)cc1)C(=O)Cn1c(CCc2ccc(F)c(F)c2F)nc(=O)c2cccnc21,3.4%
21,FC(F)(F)COc1ccc2ccccc2c1CNCCCCCCNCc1c(OCC(F)(F)F)ccc2ccccc12,14.9%
22,CC(C)(C)OC(=O)C1CCCN(Cc2ccc(-c3cccc(-c4nc5ccccc5[nH]4)c3)cc2)C1 (configuration not stated),1.94%

row,SMILES,IFI
1,COc1ccc2nccc([C@@H](O)CN3CCC(NCc4nc5c(cc4Cl)OCC(=O)N5)C(F)C3)c2c1 (some centres not stated),2.38%
2,COc1ccc(CCN(C)CCOc2ccc(NC(=O)c3ccc([N+](=O)[O-])c4c(=O)c5ccccc5[nH]c34)cc2)cc1OC,6.47%
3,CCCCCCCC/C=C\CCCCCCCC(=O)NCc1ccc(O)c(OC)c1,4.38%
4,CCCc1ccc(S(=O)(=O)Nc2ccc3c(c2)CCC3)cc1,2.26%
5,NCCCOc1cnc(-c2ccccc2)c2nc(-c3nonc3N)n(CCc3ccccc3)c12,18.8%
6,CCc1cc(Br)c(CNCCCNc2cc(=O)c3ccccc3[nH]2)s1,1.47%
7,O=C(NC1CCN(CCCOc2ccnc3cc(Cl)ccc23)C1)c1ccc(Br)cc1 (configuration not stated),3.31%
8,CC(C)(C)c1ccc(S(=O)(=O)Nc2cc(Cl)ccc2Cn2ccc(N3CCNCC3)nc2=O)cc1,2.13%
9,COc1cccc(CCNCCCCCCNCCc2ccc(Cl)cc2)c1,7.94%
10,Cc1cccc(Cn2ccc3c(N)nc(N)nc32)c1,2.38%
11,Cc1ccc(C)c(C2CCN(CCCCNC(=O)c3ccc(NC(=O)c4ccc(Cl)cc4)cc3)CC2)c1,2.26%
12,OC(COc1ccccc1-c1nc2ccccc2o1)CN1CCCN(CCc2ccccc2)CC1 (configuration not stated),3.73%
13,CNC(=O)c1cnc(Nc2ccc(N3CCOCC3)cc2)nc1Nc1cccc(O)c1,6.67%
14,Nc1cccc(CNCc2cccc(-c3csc(-c4nc5ccccc5[nH]4)c3)c2)c1,2.86%
15,CC(C)C(NC(=O)Cc1cccc2ccccc12)C(=O)Nc1cccc(C#N)c1 (configuration not stated),1.2%
16,Cc1cc(I)ccc1Nc1nc2nonc2nc1Nc1ccc(I)cc1C,15.2%
17,Nc1ccnc(N2CCC(CCOc3ccnc4cc(Cl)ccc34)CC2)c1,13.8%
18,Cc1nc(C)c(CC(=O)Nc2cccc(-c3cccc(-c4nc5cc(C(F)(F)F)ccc5[nH]4)c3)c2)s1,15.9%
19,O=C(N[C@@H](Cc1ccccc1)C(=O)NCc1cccc2ccccc12)c1ccc(O)c(-c2ccc(Cl)c(Cl)c2)c1,2.21%
20,Cc1ccc(NS(=O)(=O)c2cccs2)cc1-c1cccc(C(=O)Nc2ccc(F)cc2)c1,14.3%
21,CC1CCCCN1CCCNc1ncc2c(-c3ccc(NC(=O)Nc4cc(C(F)(F)F)ccc4F)c(F)c3)nn(C)c2n1 (configuration not stated),8.76%
